Test results published in patent EP4656654A1, “SOMATOSTATIN PEPTIDE ANALOGUE, CHELATE AND USE THEREOF” (Qianhangjiang Pharmaceutical Co., Ltd., priority 2023, dated 2025).
Like-named read-outs stand apart in the source and are kept apart here. Part of at least one peptide drawing is inferred or uncertain, most often the ends. At least one structure is not confirmed: it was looked up by name or label, or the drawing left a doubt. Numbered stars: 1 amine (or outer) side, 2 acyl side, 3 side chain; on linkers, the order of the positions; unused ones are H or OH. Bridge positions count the residues as written; N and C are the ends. Square brackets hold non-standard residues; d marks the D form. Peptide text beside a SMILES is read from it. * marks the point of attachment. Phe(3-CH2NH2) = O=C([C@H](Cc1cccc(CN[*:3])c1)N[*:1])[*:2]; DOTA = O=C(O)CN1CCN(CC(=O)O)CCN(CC(=O)*)CCN(CC(=O)O)CC1; X2 = CC(C)(CN)CC[C@H](N[*:1])C(=O)[*:2]; X1 = CC(CN)CC[C@H](N[*:1])C(=O)[*:2]; Thr(ol) = C[C@@H](O)[C@H](N)CO

Molecular target: T1, SSTR2 (Homo sapiens, UniProt P30874)
T1 construct: host or cells: CHO-K1
Assay: competitive radioligand binding assay (125I-Tyr11-Somatostatin-14) on membranes of SSTR2-overexpressing CHO-K1 cells
Settings: for EC50: radioligand 125I-Tyr11-Somatostatin-14, SSTR2 CHO-K1 cell membrane; for Bottom: parameter A, bottom of fitted % Effect curve; for Top: parameter B, top of fitted % Effect curve; for Hill slope: parameter D of fitted curve
Procedure: A competitive radioligand binding assay is utilized to measure the binding affinity of the somatostatin analogs of Formula II of the present invention. SSTR2-overexpressing CHO-K1 cells (Hunter Express SSTR2 CHO-K1; DiscoverX) are used in the radioligand competitive binding assay, with ^125I-Tyr^11-Somatostatin-14 (PerkinElmer) as the radioligand. The assay is performed as follows:
SSTR2-overexpressing CHO-K1 cells (from Discover X) were cultured in complete medium (F12 basal medium with 10% FBS and 1% P/S [100 U/mL penicillin and 100 µg/mL streptomycin]) in a 37°C incubator with 5% CO2. When the cell confluency reached 80-90%, the cells were washed twice with pre-cooled PBS. The cells were then scraped off with a cell scraper and transferred to a 50 mL centrifuge tube, followed by centrifugation at 500×g and 4°C for 10 minutes. The supernatant was discarded, and the cell pellet was retained. Cell membrane lysis buffer (containing 25 mM HEPES, 1 mM EDTA, 2 mM MgCl2, and 1× protease inhibitor, pH = 7.4) was added at a ratio of 4 × 10^7 cells/10 mL and placed on ice for 10 minutes. The cells were then disrupted using an IKA disruptor. The operating procedure was 15,000 rpm for 10 seconds, repeated twice. The disrupted cell suspension was centrifuged at 4°C and 650×g for 5 minutes. The supernatant was transferred to a new centrifuge tube and centrifuged at 13,000 rpm and 4°C for 30 minutes. The supernatant was discarded, and the cell membrane pellet was resuspended in 1.6 mL of resuspension buffer, which was cell membrane lysis buffer supplemented with 10% sucrose. The cell membrane lysis buffer was repeatedly aspirated 4 times with a 27-gauge needle to break the DNA. The cell membrane extract was measured for protein concentration using the BCA method and aliquoted and stored at -80°C.
• (1) Dilution of Compound: The assay buffer used contains 50 mM Hepes, 5 mM MgCl2, 1 mM CaCl2, and 0.5% BSA, pH = 7.4, and the buffer is filtered. The assay buffer is kept at 4°C. The ligand solution is serially diluted using an Agilent Bravo. Each test compound is diluted […] in succession. The eight binding concentrations of typical compounds are: 50 nM, 12.5 nM, 3.13 nM, 0.78 nM, 0.20 nM, 0.05 nM, 12.2 pM, and 3.05 pM. The affinity of each concentration is measured twice. Transfer 1 µL of each diluted compound to the corresponding wells of a 96-well V-bottom plate. • (2) Preparation of 125I-SST: The stock solution of 125I-SST was diluted to 3 nM (10×) with binding buffer (containing 50 mM Hepes, 5 mM MgCl2, 1 mM CaCl2, and 0.5% BSA, pH = 7.4, stored at 4°C). Transfer 10 µL of the solution to the corresponding compound well. • (3) Binding Experiment: The extracted cell membrane was diluted to 2.5 µg/90 µL with binding buffer and added to the corresponding wells. The mixture was incubated at 500 rpm on a 25°C shaker for 2 hours. The membrane complex was collected into a 0.5% PEI pre-coated GF/B plate using a Cell Harvester, and rinsed 3 times per well with 200 µL of pre-cooled buffer (4°C) (the same buffer used to dilute the compound). The plate was dried at 37°C for 2 hours. After adding 50 µL of liquid scintillation fluid (MicroScint20, Perkin Elmer) to each well and incubating for 30 minutes, the radioactivity was measured using a Topcount plate reader for 30 seconds per well.
For each compound, its 8-point reading data (2× of 8 readings) were imported into XLfit software and fitted to the sigmoidal curve. The EC50 of the compound for SSTR2 was calculated based on the mathematically optimal sigmoidal dose-response model equation: y−A + ((B−A))/(1 + (((C)/(x)))^D) [formula] where A represents the bottom of the curve, B represents the top of the curve, C represents the relative EC50, D represents the Hill slope, y represents the percentage effect value (% Effect) of the curve fitting, and x represents the molar concentration.

[1] = concentration x calculated from the fit at y = 50% effect, read-out: Absolute EC50
[2] = parameter C of sigmoidal fit, 8 concentrations in duplicate, read-out: Relative EC50

T1 sequence (P30874 whole entry): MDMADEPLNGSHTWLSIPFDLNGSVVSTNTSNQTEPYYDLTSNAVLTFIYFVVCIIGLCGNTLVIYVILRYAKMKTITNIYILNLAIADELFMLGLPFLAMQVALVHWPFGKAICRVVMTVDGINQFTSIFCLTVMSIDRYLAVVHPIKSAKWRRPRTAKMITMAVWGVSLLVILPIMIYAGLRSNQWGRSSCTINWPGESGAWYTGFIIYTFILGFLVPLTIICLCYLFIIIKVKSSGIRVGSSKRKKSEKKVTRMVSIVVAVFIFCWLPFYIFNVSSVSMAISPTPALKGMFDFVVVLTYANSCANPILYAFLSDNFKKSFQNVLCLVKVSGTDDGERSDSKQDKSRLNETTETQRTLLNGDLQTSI

Structure (SMILES)	EC50 [1] [nM]	EC50 [2] [nM]	Bottom [%]	Top [%]	Hill slope
C[C@@H](O)[C@@H]1NC(=O)[C@H](C2CCCC(CN)C2)NC(=O)[C@@H](Cc2c[nH]c3ccccc23)NC(=O)[C@H](Cc2ccccc2)NC(=O)[C@@H](NC(=O)[C@H](N)Cc2ccccc2)CSSC[C@@H](C(=O)N[C@H](CO)[C@@H](C)O)NC1=O (single isomer, unassigned) [Compound 7p2]	0.045	0.056			
C[C@@H](O)[C@@H]1NC(=O)[C@H](CCCCCN)NC(=O)[C@@H](Cc2c[nH]c3ccccc23)NC(=O)[C@H](Cc2ccccc2)NC(=O)[C@@H](NC(=O)[C@H](N)Cc2ccccc2)CSSC[C@@H](C(=O)N[C@H](CO)[C@@H](C)O)NC1=O [Compound 1]			20.6	99.3	0.92
C[C@@H](O)[C@@H]1NC(=O)[C@H](CCC(C)(C)CN)NC(=O)[C@@H](Cc2c[nH]c3ccccc23)NC(=O)[C@H](Cc2ccccc2)NC(=O)[C@@H](NC(=O)[C@H](N)Cc2ccccc2)CSSC[C@@H](C(=O)N[C@H](CO)[C@@H](C)O)NC1=O [Compound 2] (H-[dF]CF[dW][X2]TC[Thr(ol)]; disulfide 2-7)			11.5	98.7	1.22
CC(CN)CC[C@@H]1NC(=O)[C@@H](Cc2c[nH]c3ccccc23)NC(=O)[C@H](Cc2ccccc2)NC(=O)[C@@H](NC(=O)[C@H](N)Cc2ccccc2)CSSC[C@@H](C(=O)N[C@H](CO)[C@@H](C)O)NC(=O)[C@H]([C@@H](C)O)NC1=O (stereo partly drawn) [Compound 3] (H-[dF]CF[dW][X1]TC[Thr(ol)]; disulfide 2-7)			9.7	98.0	1.15
C[C@@H](O)[C@@H]1NC(=O)[C@H](Cc2cccc(CN)c2)NC(=O)[C@@H](Cc2c[nH]c3ccccc23)NC(=O)[C@H](Cc2ccccc2)NC(=O)[C@@H](NC(=O)[C@H](N)Cc2ccccc2)CSSC[C@@H](C(=O)N[C@H](CO)[C@@H](C)O)NC1=O [Compound 5] (H-[dF]CF[dW][Phe(3-CH2NH2)]TC[Thr(ol)]; disulfide 2-7)	46	58			
C[C@@H](O)[C@H](NC(=O)[C@@H]1CSSC[C@H](NC(=O)[C@@H](Cc2ccccc2)NC(=O)CN2CCN(CC(=O)O)CCN(CC(=O)O)CCN(CC(=O)O)CC2)C(=O)N[C@@H](Cc2ccc(O)cc2)C(=O)N[C@H](Cc2c[nH]c3ccccc23)C(=O)N[C@@H](CCC(C)(C)CN)C(=O)N[C@@H]([C@@H](C)O)C(=O)N1)C(=O)O [Compound 6] ({DOTA}-[dF]CY[dW][X2]TCT-OH; disulfide 2-7; N-terminus and C-terminus assumed)	0.81	1.1			
